# Results as given in the supplement of paper PMC8183993.
# Values joined by “and” are separate entries in the source; they are usually repeats but may differ in a detail not shown here. Equal entries are not always repeated. Structures can show the parent of a compound that is named as a salt. ± gives the standard deviation of the averaged measurements. The full ranking holds about 3,100 compounds; the median of “mean cytoplasmic OPP incorporation (global translation) relative to DMSO” is about 100, and the lowest 2% start at about 56. The list shows a part of the results.
# Tested on: U2OS
# Assay: mean cytoplasmic OPP incorporation (global translation) relative to DMSO (% of DMSO); higher = more protein synthesis
# Conditions: 10 µM; 24 h
# Experimental: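 Primary image-based screen in U2OS cells: compounds at 10 uM for 24 h, then a 1 h o-propargyl-puromycin (OPP) pulse, click labelling, and high-throughput microscopy. Mean cytoplasmic OPP intensity and nuclei count were normalised to DMSO wells within each plate (DMSO = 100) and averaged over triplicate plates.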
row,Compound,mean cytoplasmic OPP incorporation
1,CC(C(=O)O)c1ccc(C(=O)c2ccccc2)s1 (configuration not stated) [Tiaprofenic acid],99.8
2,"CCCCC[C@H](O)/C=C/C=C\CCCCCCCC(=O)O [13(S)-Hydroxy-9Z,11E-octadecadienoic acid]",99.3
3,CN(C)CC/C=C1/c2ccccc2COc2ccc(CC(=O)O)cc21 [Olopatadine hydrochloride],102
4,c1nc(CC2CCNCC2)c[nH]1 [Immepip dihydrobromide],96.1
5,O=C(O)C1=CCCN(CCON=C(c2ccccc2)c2ccccc2)C1,96.2
6,c1ccc(CN(CC2=NCCN2)c2ccccc2)cc1 [Antazoline hydrochloride],92 ± 3
7,CC[C@H](C)C[C@H](C)CCCCCCCCC(=O)N[C@H]1C[C@@H](O)[C@@H](NCCN)NC(=O)[C@@H]2[C@@H](O)CCN2C(=O)[C@H]([C@H](O)CCN)NC(=O)[C@H]([C@H](O)[C@@H](O)c2ccc(O)cc2)NC(=O)[C@@H]2C[C@@H](O)CN2C(=O)[C@H]([C@@H](C)O)NC1=O [Caspofungin Acetate],95.1
8,Nc1ncnc2n[nH]c(Nc3ccc(F)cc3)c12,83.1
9,C[C@@]1(c2cc(-c3cncnc3)c(F)cc2F)CCSC(N)=N1,104
10,CCc1cnn2c(NCc3ccc[n+]([O-])c3)cc(N3CCCC[C@H]3CCO)nc12,60.9 ± 3.4
11,Cn1c(=O)c2c(ncn2CCO)n(C)c1=O [Etofylline],93.1
12,COC(C)(C)CCCC(C)C/C=C/C(C)=C/C(=O)O (configuration not stated) [Methoprene acid],99.2
13,CCCCCCCCCCCCCCSCC(=O)O [Tetradecylthioacetic acid],102
14,CCc1cc2c(c(CC)n1)CCC(=O)N2Cc1ccc(-c2ccccc2-c2nn[nH]n2)cc1 [ZD 7155 hydrochloride],98.8
15,C#CCN(C)CCCOc1ccc(Cl)cc1Cl [Clorgyline hydrochloride],87.7
16,CC(C)(CO)Cc1cc(C(C)(C)C)c(O)c(C(C)(C)C)c1,103
17,O=C(O)CN(CCN(CC(=O)O)CC(=O)O)CCN(CC(=O)O)CC(=O)O [Pentetic acid],97.9
18,CC(C(=O)Nc1cccc(/N=C/c2c(O)ccc3ccccc23)c1)c1ccccc1 (configuration not stated) [Salermide],109
19,"CC(C)NCC(O)c1cc(O)cc(O)c1 (configuration not stated) [Metaproterenol sulfate, orciprenaline sulfate]",103
20,O=[N+]([O-])c1cc2nc(O)c(O)nc2cc1[N+](=O)[O-],108
21,Oc1cc2c(c(Cl)c1O)CCNCC2c1ccccc1 (configuration not stated),92.4
22,CC(C)=CCC/C(C)=C/CC/C(C)=C/CC/C(C)=C/CO [Geranylgeraniol],104
23,CCN(CC)Cc1cc(Nc2ccnc3cc(Cl)ccc23)ccc1O [Amodiaquin dihydrochloride dihydrate],112
24,COCC(=O)O[C@]1(CCN(C)CCCc2nc3ccccc3[nH]2)CCc2cc(F)ccc2[C@@H]1C(C)C [Mibefradil dihydrochloride],116

row,Compound,mean cytoplasmic OPP incorporation
1,OC[C@H]1O[C@@H](n2cnc3c2N=CNC[C@H]3O)C[C@@H]1O [Pentostatin],107
2,CN(C)c1ccccc1CN1CCCN(Cc2ccccc2N(C)C)C1c1ccncc1,101
3,CCC(=O)OCC(=O)[C@@]1(OC(=O)CC)[C@@H](C)C[C@H]2[C@@H]3CCC4=CC(=O)C=C[C@]4(C)[C@@]3(Cl)[C@@H](O)C[C@@]21C [Beclomethasone dipropionate (Beclometasone dipropionate)],106
4,CCC(=O)OCC(=O)[C@@]1(OC(=O)CC)[C@@H](C)C[C@H]2[C@@H]3CCC4=CC(=O)C=C[C@]4(C)[C@@]3(Cl)[C@@H](O)C[C@@]21C [Beclomethasone dipropionate],106
5,COc1ccc2[nH]c(C(=O)c3ccccc3)cc2c1,81.3
6,O=C(/C=C/C=C/c1ccc2c(c1)OCO2)N1CCCCC1 [Piperine (1-Piperoylpiperidine)],98.8
7,COc1nc(N)nc2c1ncn2[C@@H]1O[C@H](CO)[C@@H](O)[C@@H]1O [Nelarabine (Arranon)],101
8,OC[C@H]1O[C@H](O[C@H]2O[C@H](CO)[C@@H](O)[C@H](O)[C@H]2O)[C@H](O)[C@@H](O)[C@@H]1O [Trehalose],94
9,CN(C)CCCn1cc(C2=C(c3c[nH]c4ccccc34)C(=O)NC2=O)c2ccccc21,90.7 and 79.3
10,CN/C(=N\c1ccc(C2=NNC(=O)CC2C)cc1)NC#N (configuration not stated) [Siguazodan],99.9
11,COc1ccccc1N1CCN(CCCNc2cc(=O)n(C)c(=O)n2C)CC1 [Urapidil hydrochloride],99.8 ± 5.4
12,O=C(Nc1cccc(Nc2ncc(Br)c(NCCc3cnc[nH]3)n2)c1)N1CCCC1,86.6 ± 3.9
13,O=C1CCC(N2C(=O)c3ccccc3C2=O)C(=O)N1 (configuration not stated) [Thalidomide],97.7 ± 4.5
14,O=C1NCCN1CCN1CCC(c2cn(-c3ccc(F)cc3)c3ccc(Cl)cc23)CC1 [Sertindole],108
15,O=C(Nc1cccc2cccnc12)c1ccc(N2C(=O)[C@@H]3[C@H](C2=O)[C@@H]2C=C[C@H]3C2)cc1 [endo-IWR 1],105
16,CCCCc1nc(Cl)c(CO)n1Cc1ccc(-c2ccccc2-c2nnn[nH]2)cc1 [Losartan],109
17,CC1(C)S[C@@H]2[C@H](NC(=O)Cc3ccccc3)C(=O)N2[C@H]1C(=O)O [Benzylpenicillin sodium],80.8
18,CC1(C)S[C@@H]2[C@H](NC(=O)Cc3ccccc3)C(=O)N2[C@H]1C(=O)O [Benzathine benzylpenicillin],104
19,Cc1nc2n(c(=O)c1CCN1CCC(c3noc4cc(F)ccc34)CC1)CCCC2O (configuration not stated) [Paliperidone (Invega)],108
20,CCN(CC)CCNC(=O)COc1ccc(OC)cc1 [Mefexamide hydrochloride],99
21,Clc1ccc(C(Cn2ccnc2)OCc2csc3c(Cl)cccc23)c(Cl)c1 (configuration not stated) [Sertaconazole nitrate],110
22,C=CCn1c(=O)c2cnc(Nc3ccc(N4CCN(C)CC4)cc3)nc2n1-c1cccc(C(C)(C)O)n1,64.3
23,CC(=O)OCC1=C(C(=O)O)N2C(=O)[C@@H](NC(=O)Cc3cccs3)[C@H]2SC1 [Cephalothin sodium salt],99.8
